This is an account of results in the supplement of paper PMC12230231.

± gives the standard deviation of the averaged measurements. Restriction of a single-cycle SIVsab GFP reporter by TRIM5α v1-loop variants in CRFK cells. Human variants: read share among cells still uninfected after two challenges over input, higher = gained restriction. Rhesus variants: share among infected cells over input, higher = lost restriction. Reporter dose not given per row. No active / inactive call per row; the paper calls a change when both replicates lie above its controls (mean + 2 SD of stop or wild-type variants, or the top frameshift score). Residues outside the varied loop are taken from Swiss-Prot. The paper reads the human single-substitution scores as noise; they and the rhesus combinations repeat poorly (rank correlation 0.3 to 0.4), indel scores repeat only for the top variants, rhesus substitutions well (0.9).

In the data set the test system is SIVsab (simian immunodeficiency virus of sabaeus monkeys), single-cycle GFP reporter, in CRFK cells. Nature of the data set: enrichment among uninfected cells over input (fold); higher = stronger restriction. As to conditions: library: human / rhesus combinations. The method, then: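 Pools of CRFK cells expressing variants of the TRIM5α v1 loop were challenged with the single-cycle reporter, sorted by GFP and sequenced; mean of two replicates.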
For “MASGILVNVKEEVTCPICLELLTQPLSLDCGHSFCQACLTANHKKSMLDKGESSCPVCRISYQPENIRPNRHVANIVEKLREVKLSPEGQKVDHCARHGEKLLLFCQEDGKVICWLCERSQEHRGHHTFLTEEVAREYQVKLQAALEMLRQKQQEAEELEADIREEKASWKTQIQYDKTNVLADFEQLRDILDWEESNELQNLEKEEEDILKSLTNSETEMVQQTQSLRELISDLEHRLQGSVMELLQGVDGVIKRTENVTLKKPETFPKNQRRVFRAPDLKGMLEVFRELTDVRRYWVDVTVAPNNISCAVISEDKRQVSSPKPQIIYQAPGTRFQSLVNFNYCTGILGSQSITSGKHYWEVDVSKKTAWILGVCAGFQPDAMCNIEKNENYQPKYGYWVIGLEEGVKCSAFQDSSFHTPSVPFIVPLSVIICPDRVGVFLDYEACTVSFFNITNHGFLIYKFSHCSFSQPVFPYLNPRKCGVPMTLCSPSS [human TRIM5α, 330-340 = QAPGTRFQSLV]”, the enrichment is 0.0619 ± 0.085.

On to “MASGILVNVKEEVTCPICLELLTQPLSLDCGHSFCQACLTANHKKSMLDKGESSCPVCRISYQPENIRPNRHVANIVEKLREVKLSPEGQKVDHCARHGEKLLLFCQEDGKVICWLCERSQEHRGHHTFLTEEVAREYQVKLQAALEMLRQKQQEAEELEADIREEKASWKTQIQYDKTNVLADFEQLRDILDWEESNELQNLEKEEEDILKSLTNSETEMVQQTQSLRELISDLEHRLQGSVMELLQGVDGVIKRTENVTLKKPETFPKNQRRVFRAPDLKGMLEVFRELTDVRRYWVDVTVAPNNISCAVISEDKRQVSSPKPQIIYQAPGTRFQTLVNFNYCTGILGSQSITSGKHYWEVDVSKKTAWILGVCAGFQPDAMCNIEKNENYQPKYGYWVIGLEEGVKCSAFQDSSFHTPSVPFIVPLSVIICPDRVGVFLDYEACTVSFFNITNHGFLIYKFSHCSFSQPVFPYLNPRKCGVPMTLCSPSS [human TRIM5α, 330-340 = QAPGTRFQTLV]”, for which the enrichment was 0.00321 ± 0.0032.

For “MASGILVNVKEEVTCPICLELLTQPLSLDCGHSFCQACLTANHKKSMLDKGESSCPVCRISYQPENIRPNRHVANIVEKLREVKLSPEGQKVDHCARHGEKLLLFCQEDGKVICWLCERSQEHRGHHTFLTEEVAREYQVKLQAALEMLRQKQQEAEELEADIREEKASWKTQIQYDKTNVLADFEQLRDILDWEESNELQNLEKEEEDILKSLTNSETEMVQQTQSLRELISDLEHRLQGSVMELLQGVDGVIKRTENVTLKKPETFPKNQRRVFRAPDLKGMLEVFRELTDVRRYWVDVTVAPNNISCAVISEDKRQVSSPKPQIIYQAPGTRFTFPSFTNFNYCTGILGSQSITSGKHYWEVDVSKKTAWILGVCAGFQPDAMCNIEKNENYQPKYGYWVIGLEEGVKCSAFQDSSFHTPSVPFIVPLSVIICPDRVGVFLDYEACTVSFFNITNHGFLIYKFSHCSFSQPVFPYLNPRKCGVPMTLCSPSS [human TRIM5α, 330-340 = QAPGTRFTFPSFT]”, the enrichment amounted to 2.47 ± 0.45.

Take “MASGILVNVKEEVTCPICLELLTQPLSLDCGHSFCQACLTANHKKSMLDKGESSCPVCRISYQPENIRPNRHVANIVEKLREVKLSPEGQKVDHCARHGEKLLLFCQEDGKVICWLCERSQEHRGHHTFLTEEVAREYQVKLQAALEMLRQKQQEAEELEADIREEKASWKTQIQYDKTNVLADFEQLRDILDWEESNELQNLEKEEEDILKSLTNSETEMVQQTQSLRELISDLEHRLQGSVMELLQGVDGVIKRTENVTLKKPETFPKNQRRVFRAPDLKGMLEVFRELTDVRRYWVDVTVAPNNISCAVISEDKRQVSSPKPQIIYQAPGTRFTFPSFVNFNYCTGILGSQSITSGKHYWEVDVSKKTAWILGVCAGFQPDAMCNIEKNENYQPKYGYWVIGLEEGVKCSAFQDSSFHTPSVPFIVPLSVIICPDRVGVFLDYEACTVSFFNITNHGFLIYKFSHCSFSQPVFPYLNPRKCGVPMTLCSPSS [human TRIM5α, 330-340 = QAPGTRFTFPSFV]”: the enrichment was determined as 0.186 ± 0.0088.

For the sequence “MASGILVNVKEEVTCPICLELLTQPLSLDCGHSFCQACLTANHKKSMLDKGESSCPVCRISYQPENIRPNRHVANIVEKLREVKLSPEGQKVDHCARHGEKLLLFCQEDGKVICWLCERSQEHRGHHTFLTEEVAREYQVKLQAALEMLRQKQQEAEELEADIREEKASWKTQIQYDKTNVLADFEQLRDILDWEESNELQNLEKEEEDILKSLTNSETEMVQQTQSLRELISDLEHRLQGSVMELLQGVDGVIKRTENVTLKKPETFPKNQRRVFRAPDLKGMLEVFRELTDVRRYWVDVTVAPNNISCAVISEDKRQVSSPKPQIIYQAPGTRFTFPSLTNFNYCTGILGSQSITSGKHYWEVDVSKKTAWILGVCAGFQPDAMCNIEKNENYQPKYGYWVIGLEEGVKCSAFQDSSFHTPSVPFIVPLSVIICPDRVGVFLDYEACTVSFFNITNHGFLIYKFSHCSFSQPVFPYLNPRKCGVPMTLCSPSS [human TRIM5α, 330-340 = QAPGTRFTFPSLT]”, the enrichment is 2.86 ± 1.2.

On to “MASGILVNVKEEVTCPICLELLTQPLSLDCGHSFCQACLTANHKKSMLDKGESSCPVCRISYQPENIRPNRHVANIVEKLREVKLSPEGQKVDHCARHGEKLLLFCQEDGKVICWLCERSQEHRGHHTFLTEEVAREYQVKLQAALEMLRQKQQEAEELEADIREEKASWKTQIQYDKTNVLADFEQLRDILDWEESNELQNLEKEEEDILKSLTNSETEMVQQTQSLRELISDLEHRLQGSVMELLQGVDGVIKRTENVTLKKPETFPKNQRRVFRAPDLKGMLEVFRELTDVRRYWVDVTVAPNNISCAVISEDKRQVSSPKPQIIYQAPGTRFTFPSLVNFNYCTGILGSQSITSGKHYWEVDVSKKTAWILGVCAGFQPDAMCNIEKNENYQPKYGYWVIGLEEGVKCSAFQDSSFHTPSVPFIVPLSVIICPDRVGVFLDYEACTVSFFNITNHGFLIYKFSHCSFSQPVFPYLNPRKCGVPMTLCSPSS [human TRIM5α, 330-340 = QAPGTRFTFPSLV]”, for which the enrichment turned out to be 0.306 ± 0.1.

For “MASGILVNVKEEVTCPICLELLTQPLSLDCGHSFCQACLTANHKKSMLDKGESSCPVCRISYQPENIRPNRHVANIVEKLREVKLSPEGQKVDHCARHGEKLLLFCQEDGKVICWLCERSQEHRGHHTFLTEEVAREYQVKLQAALEMLRQKQQEAEELEADIREEKASWKTQIQYDKTNVLADFEQLRDILDWEESNELQNLEKEEEDILKSLTNSETEMVQQTQSLRELISDLEHRLQGSVMELLQGVDGVIKRTENVTLKKPETFPKNQRRVFRAPDLKGMLEVFRELTDVRRYWVDVTVAPNNISCAVISEDKRQVSSPKPQIIYQAPGTRFTFPTFTNFNYCTGILGSQSITSGKHYWEVDVSKKTAWILGVCAGFQPDAMCNIEKNENYQPKYGYWVIGLEEGVKCSAFQDSSFHTPSVPFIVPLSVIICPDRVGVFLDYEACTVSFFNITNHGFLIYKFSHCSFSQPVFPYLNPRKCGVPMTLCSPSS [human TRIM5α, 330-340 = QAPGTRFTFPTFT]”, the enrichment was 1.79 ± 0.85.

Turning to “MASGILVNVKEEVTCPICLELLTQPLSLDCGHSFCQACLTANHKKSMLDKGESSCPVCRISYQPENIRPNRHVANIVEKLREVKLSPEGQKVDHCARHGEKLLLFCQEDGKVICWLCERSQEHRGHHTFLTEEVAREYQVKLQAALEMLRQKQQEAEELEADIREEKASWKTQIQYDKTNVLADFEQLRDILDWEESNELQNLEKEEEDILKSLTNSETEMVQQTQSLRELISDLEHRLQGSVMELLQGVDGVIKRTENVTLKKPETFPKNQRRVFRAPDLKGMLEVFRELTDVRRYWVDVTVAPNNISCAVISEDKRQVSSPKPQIIYQAPGTRFTFPTFVNFNYCTGILGSQSITSGKHYWEVDVSKKTAWILGVCAGFQPDAMCNIEKNENYQPKYGYWVIGLEEGVKCSAFQDSSFHTPSVPFIVPLSVIICPDRVGVFLDYEACTVSFFNITNHGFLIYKFSHCSFSQPVFPYLNPRKCGVPMTLCSPSS [human TRIM5α, 330-340 = QAPGTRFTFPTFV]”, the enrichment was found to be 0.186 ± 0.21.

For “MASGILVNVKEEVTCPICLELLTQPLSLDCGHSFCQACLTANHKKSMLDKGESSCPVCRISYQPENIRPNRHVANIVEKLREVKLSPEGQKVDHCARHGEKLLLFCQEDGKVICWLCERSQEHRGHHTFLTEEVAREYQVKLQAALEMLRQKQQEAEELEADIREEKASWKTQIQYDKTNVLADFEQLRDILDWEESNELQNLEKEEEDILKSLTNSETEMVQQTQSLRELISDLEHRLQGSVMELLQGVDGVIKRTENVTLKKPETFPKNQRRVFRAPDLKGMLEVFRELTDVRRYWVDVTVAPNNISCAVISEDKRQVSSPKPQIIYQAPGTRFTFPTLTNFNYCTGILGSQSITSGKHYWEVDVSKKTAWILGVCAGFQPDAMCNIEKNENYQPKYGYWVIGLEEGVKCSAFQDSSFHTPSVPFIVPLSVIICPDRVGVFLDYEACTVSFFNITNHGFLIYKFSHCSFSQPVFPYLNPRKCGVPMTLCSPSS [human TRIM5α, 330-340 = QAPGTRFTFPTLT]”, the enrichment was 7.19 ± 3.9.

In the case of “MASGILVNVKEEVTCPICLELLTQPLSLDCGHSFCQACLTANHKKSMLDKGESSCPVCRISYQPENIRPNRHVANIVEKLREVKLSPEGQKVDHCARHGEKLLLFCQEDGKVICWLCERSQEHRGHHTFLTEEVAREYQVKLQAALEMLRQKQQEAEELEADIREEKASWKTQIQYDKTNVLADFEQLRDILDWEESNELQNLEKEEEDILKSLTNSETEMVQQTQSLRELISDLEHRLQGSVMELLQGVDGVIKRTENVTLKKPETFPKNQRRVFRAPDLKGMLEVFRELTDVRRYWVDVTVAPNNISCAVISEDKRQVSSPKPQIIYQAPGTRFTFPTLVNFNYCTGILGSQSITSGKHYWEVDVSKKTAWILGVCAGFQPDAMCNIEKNENYQPKYGYWVIGLEEGVKCSAFQDSSFHTPSVPFIVPLSVIICPDRVGVFLDYEACTVSFFNITNHGFLIYKFSHCSFSQPVFPYLNPRKCGVPMTLCSPSS [human TRIM5α, 330-340 = QAPGTRFTFPTLV]”, the enrichment was found to be 0.141 ± 0.074.

As to “MASGILVNVKEEVTCPICLELLTQPLSLDCGHSFCQACLTANHKKSMLDKGESSCPVCRISYQPENIRPNRHVANIVEKLREVKLSPEGQKVDHCARHGEKLLLFCQEDGKVICWLCERSQEHRGHHTFLTEEVAREYQVKLQAALEMLRQKQQEAEELEADIREEKASWKTQIQYDKTNVLADFEQLRDILDWEESNELQNLEKEEEDILKSLTNSETEMVQQTQSLRELISDLEHRLQGSVMELLQGVDGVIKRTENVTLKKPETFPKNQRRVFRAPDLKGMLEVFRELTDVRRYWVDVTVAPNNISCAVISEDKRQVSSPKPQIIYQAPGTRFTFQSFTNFNYCTGILGSQSITSGKHYWEVDVSKKTAWILGVCAGFQPDAMCNIEKNENYQPKYGYWVIGLEEGVKCSAFQDSSFHTPSVPFIVPLSVIICPDRVGVFLDYEACTVSFFNITNHGFLIYKFSHCSFSQPVFPYLNPRKCGVPMTLCSPSS [human TRIM5α, 330-340 = QAPGTRFTFQSFT]”, the enrichment came out at 4.41 ± 0.048.

For the sequence “MASGILVNVKEEVTCPICLELLTQPLSLDCGHSFCQACLTANHKKSMLDKGESSCPVCRISYQPENIRPNRHVANIVEKLREVKLSPEGQKVDHCARHGEKLLLFCQEDGKVICWLCERSQEHRGHHTFLTEEVAREYQVKLQAALEMLRQKQQEAEELEADIREEKASWKTQIQYDKTNVLADFEQLRDILDWEESNELQNLEKEEEDILKSLTNSETEMVQQTQSLRELISDLEHRLQGSVMELLQGVDGVIKRTENVTLKKPETFPKNQRRVFRAPDLKGMLEVFRELTDVRRYWVDVTVAPNNISCAVISEDKRQVSSPKPQIIYQAPGTRFTFQSFVNFNYCTGILGSQSITSGKHYWEVDVSKKTAWILGVCAGFQPDAMCNIEKNENYQPKYGYWVIGLEEGVKCSAFQDSSFHTPSVPFIVPLSVIICPDRVGVFLDYEACTVSFFNITNHGFLIYKFSHCSFSQPVFPYLNPRKCGVPMTLCSPSS [human TRIM5α, 330-340 = QAPGTRFTFQSFV]”, the enrichment is 0.46 ± 0.057.
